From article PMC4999519
These are yes or no findings as the source states them, for the method shown. In cells and extracts the contact can be indirect. Some binding calls cover weakened binding; strength is not graded here. For some of these results: Where a sequence is shown, tags or fusion partners need not be part of it.

Tests used:
[1] = molecular target: T1, Peroxisome proliferator-activated receptor gamma coactivator 1-alpha (endogenous) (mouse (endogenous in OP9, C2C12, mouse BAT, brown adipocyte line)) (UniProt O70343); assay: co-IP; nuclear extracts of C2C12 myotubes treated with vehicle or Iso/IBMX for 2 h; IP of PGC-1α or of Perilipin 5; IP buffer 20 mM HEPES pH 7.9, 0.15 M NaCl, 1 mM EDTA, 1 mM EGTA, 1 mM DTT; 4 °C
T1 sequence: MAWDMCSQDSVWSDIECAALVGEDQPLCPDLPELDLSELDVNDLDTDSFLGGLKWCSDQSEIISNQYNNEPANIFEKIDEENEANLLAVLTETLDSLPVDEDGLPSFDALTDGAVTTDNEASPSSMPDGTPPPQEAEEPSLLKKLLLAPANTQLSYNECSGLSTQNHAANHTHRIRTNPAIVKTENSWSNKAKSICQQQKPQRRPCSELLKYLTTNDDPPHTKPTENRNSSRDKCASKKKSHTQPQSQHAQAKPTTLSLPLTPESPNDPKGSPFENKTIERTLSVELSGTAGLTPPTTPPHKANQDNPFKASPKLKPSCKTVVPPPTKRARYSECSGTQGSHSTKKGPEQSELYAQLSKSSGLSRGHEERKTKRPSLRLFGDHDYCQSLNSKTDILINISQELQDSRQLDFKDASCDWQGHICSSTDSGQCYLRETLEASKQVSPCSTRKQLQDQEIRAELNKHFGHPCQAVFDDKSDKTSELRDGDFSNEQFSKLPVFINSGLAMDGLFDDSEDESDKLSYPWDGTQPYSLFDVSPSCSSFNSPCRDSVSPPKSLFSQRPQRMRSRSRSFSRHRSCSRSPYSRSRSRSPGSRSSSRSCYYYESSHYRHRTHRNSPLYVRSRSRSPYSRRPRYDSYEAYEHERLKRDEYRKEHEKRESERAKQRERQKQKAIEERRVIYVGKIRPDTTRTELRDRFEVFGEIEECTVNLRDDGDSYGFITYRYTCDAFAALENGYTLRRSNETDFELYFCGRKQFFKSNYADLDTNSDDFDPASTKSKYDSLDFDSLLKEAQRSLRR

[2] = molecular target: T1, Peroxisome proliferator-activated receptor gamma coactivator 1-alpha (endogenous) (mouse (endogenous in OP9, C2C12, mouse BAT, brown adipocyte line)); assay: proximity ligation; DuoLink in situ PLA in C2C12 differentiating myoblasts treated with vehicle or Iso/IBMX for 2 h, fixed and permeabilised; endogenous proteins
[3] = molecular target: T1, Peroxisome proliferator-activated receptor gamma coactivator 1-alpha (endogenous) (mouse (endogenous in OP9, C2C12, mouse BAT, brown adipocyte line)); assay: co-IP; whole-cell lysate of brown adipocytes treated with vehicle or Iso/IBMX for 2 h; IP of Perilipin 5 or of PGC-1α; controls IgG and siRNA for PGC-1α and/or Perilipin 5; also with orlistat or siATGL; lysis in HEPES pH 7.4, 150 mM NaCl, 2 mM EDTA, 1% Triton X-100, 0.5% cholate; 4 °C
flag-PGC-1α = molecular target: T2, flag-PGC-1α (UniProt O70343); assay: co-IP; whole-cell extract of C2C12 myoblasts transfected with myc-Perilipin 5 and flag-PGC-1α and treated with Iso/IBMX for 2 h; flag and myc antibodies; non-transfected cells as control
T2 sequence: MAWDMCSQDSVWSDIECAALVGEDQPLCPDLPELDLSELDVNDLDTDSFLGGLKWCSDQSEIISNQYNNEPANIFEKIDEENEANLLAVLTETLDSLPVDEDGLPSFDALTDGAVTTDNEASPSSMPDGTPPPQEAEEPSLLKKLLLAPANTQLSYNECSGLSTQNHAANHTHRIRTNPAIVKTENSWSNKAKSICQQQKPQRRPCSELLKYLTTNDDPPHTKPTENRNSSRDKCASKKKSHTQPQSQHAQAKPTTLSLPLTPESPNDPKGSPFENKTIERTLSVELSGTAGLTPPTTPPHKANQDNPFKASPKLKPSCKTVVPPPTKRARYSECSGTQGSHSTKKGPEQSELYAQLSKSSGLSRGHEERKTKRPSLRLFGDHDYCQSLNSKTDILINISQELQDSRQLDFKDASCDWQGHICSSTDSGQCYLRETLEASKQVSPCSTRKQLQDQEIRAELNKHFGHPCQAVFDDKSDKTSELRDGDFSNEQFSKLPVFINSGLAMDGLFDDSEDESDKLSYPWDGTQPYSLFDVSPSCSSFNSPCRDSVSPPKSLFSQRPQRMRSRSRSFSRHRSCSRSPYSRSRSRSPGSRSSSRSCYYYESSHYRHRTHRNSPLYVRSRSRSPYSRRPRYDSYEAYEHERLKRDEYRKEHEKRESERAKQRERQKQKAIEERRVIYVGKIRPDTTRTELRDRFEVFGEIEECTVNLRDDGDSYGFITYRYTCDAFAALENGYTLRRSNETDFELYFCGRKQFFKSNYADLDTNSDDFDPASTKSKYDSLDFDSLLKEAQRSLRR

B1: Perilipin 5 (endogenous) (protein, UniProt Q8BVZ1 1-463)
chain: MDQRGEDTTLAPHSRMSGDQTAQDPGSSLGELDQQNVVNRVVALPLVKATCTAVSSAYNSAKDRHPLLGSACRLAEHCVCSVTTCALDHAQPLLEHLQPQLATVNDLACRGLDKLEEKLPFLQQPSDMVVTSAKDTVAKSVTGMVDLAQRGRRWSGELRRSMSQAMDMVLGKSEKLVDRFLPMTEAELAVLAAEAEGPEVGTVEEQRQQQGYFVRLGSLSARLRHLAYEHSLGKLRQSKHRTQEMLAQLQETLELIQHMQRGASPSPTFHPPKTQELWGSWSPCLENGRSHSEVELETLALSRSLTLELQNAVDALAGCVRGLPPSAQAKVAEVQRSVDALQATFADAHCLGDVAPTALAEGRGSVARAHACVDEFLDLVLRAMPLPWLVGPFAPILVEQSEPLINLATCVDEVVGDPDPRWAHMDWPAQKRAWEAESADPGGQEAEPPRGQGKHTMMPELDF
Question: How did the binding [1] turn out when B1 was run?
Answer: Its binding is “binds”.

Question: What about the binding [2] of the same binder?
Answer: The binding was “binds”.

Question: And the binding [3]?
Answer: Its binding is “binds”.

B2: myc-Perilipin 5 (transfected in C2C12 myoblasts) (protein, UniProt Q8BVZ1 1-463)
chain: MDQRGEDTTLAPHSRMSGDQTAQDPGSSLGELDQQNVVNRVVALPLVKATCTAVSSAYNSAKDRHPLLGSACRLAEHCVCSVTTCALDHAQPLLEHLQPQLATVNDLACRGLDKLEEKLPFLQQPSDMVVTSAKDTVAKSVTGMVDLAQRGRRWSGELRRSMSQAMDMVLGKSEKLVDRFLPMTEAELAVLAAEAEGPEVGTVEEQRQQQGYFVRLGSLSARLRHLAYEHSLGKLRQSKHRTQEMLAQLQETLELIQHMQRGASPSPTFHPPKTQELWGSWSPCLENGRSHSEVELETLALSRSLTLELQNAVDALAGCVRGLPPSAQAKVAEVQRSVDALQATFADAHCLGDVAPTALAEGRGSVARAHACVDEFLDLVLRAMPLPWLVGPFAPILVEQSEPLINLATCVDEVVGDPDPRWAHMDWPAQKRAWEAESADPGGQEAEPPRGQGKHTMMPELDF
Question: With B2 as the binder, how does the binding (flag-PGC-1α) read?
Answer: The binding was “binds”.
